Laboratory results reported in PubChem BioAssay AID1508623 (National Center for Advancing Translational Sciences (NCATS), 2021).
The campaign covered roughly 48,000 compounds. About 450 (0.94%) were called active. Inconclusive results (about 19%) are left out. Calls come from the whole dose curve; as a rule, active = well fitted inhibition curve with a large enough effect; inconclusive = small, poorly fitted or top-dose-only effect; inactive = no such curve, though single readings can be large or run the other way. Some of the results follow.

assay: Primary qHTS for Identification of Small Molecule Inhibitors of Huntingtin Promoter Activity; details: HEK293 HTT promoter firefly luciferase reporter (activity 0% = vehicle and -100% = no light), 24 h; series mostly up to 57.5 µM; activity change, negative = inhibition: at the top concentration; note: nearly all actives have a fitted effect of over 50% in size
Summary of the method: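 Firefly luciferase readout (Dual-Glo, 10 min RT) after 24 h, 37 °C compound exposure (final up to 57.5 uM) of HEK293 reporter cells cultured 24 h beforehand; PTC124 at 50 uM final as control inhibitor; activity scaled vehicle 0%, zero RLU -100%.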

Activity change, negative = inhibition, inactive:
CCCCOc1ccc(C(=O)N(Cc2ccco2)Cc2ccco2)cc1 -9.5%
Cc1ccc(/C=N/n2c(-c3ccccc3)csc2=S)cc1 -1.64%
Cc1cccc(N(CC(N)=O)C2SC(=O)N(Cc3cccc(C(=O)O)c3)C2=O)c1 (configuration not stated) -5.05%
CCC(=O)Nc1nnc2n1CCS2 -9.14%
Cc1cc(Br)cc2c(C(=O)OCC(=O)c3ccccc3)cc(-c3ccccc3)nc12 -8.23%
Cc1c(-c2nnc(SCC(=O)Nc3ccc(Cl)cc3)o2)nnn1-c1ccc(F)cc1 11.2%
CCN1CCSc2ccc(C(=O)NCc3ccccc3Br)cc21 -20.2%
O=c1[nH]c(SCc2cccc(Cl)c2)nc2c1CCC2 0.451%
COc1ccc(Cn2c(CO)cnc2SCc2cccc(C)c2)cc1 22.5%
COc1ccccc1N1CCN(C(=O)CCS(=O)(=O)c2cc(Br)cc3c2N(C(C)=O)CC3)CC1 -13%
Cc1cc(C)c2oc(-c3ccc(C)c(NC(=O)/C=C/c4ccco4)c3)nc2c1 -0.973%
Cc1nc(N2CCCC2)ncc1C(=O)N1CCN(c2ccccc2F)CC1 -5.37%
COc1cccc(-c2nc(S(=O)(=O)c3ccccc3)c(N3CCC(C)CC3)o2)c1 -18.8%
Cc1ccc(C(=O)n2nc(C)c(S(=O)(=O)N3CCOCC3)c2C)cc1C -19.4%
Cc1ccc(NC(=O)c2nnn(CC(=O)Nc3ccc(C)c(Cl)c3)c2N)c(C)c1 5.85%
O=c1c2ccccc2nc(-c2ccc(Cl)cc2)n1CCCOc1ccccc1F -3.74%
COc1cc(C(=O)NCCc2csc3nc(-c4ccccc4C)nn23)cc(OC)c1OC -17.5%
CC(C)c1ccc(NC(=O)CC2Oc3ccccc3NC2=O)cc1 (configuration not stated) -20.7%
O=C(OC1C[C@H]2CC[C@@H](C1)[N+]21CCCC1)C(O)(c1ccccc1)c1ccccc1 (some centres not stated) 38.6%
Cc1ccc(Cl)cc1NC(=O)CN1C(=O)COc2ccc(S(=O)(=O)N3CCCCCC3)cc21 -19.4%
COc1ccccc1CCNC(=O)CCc1c(C)c2cc3c(C)c(C)oc3cc2oc1=O -2.85%
Cc1ccc(NC(=O)C(=O)NCC(c2ccc3c(c2)OCO3)N2CCN(c3ccccc3)CC2)cc1 (configuration not stated) -1.33%
CCN(C(=O)C(Cc1ccccc1)NS(=O)(=O)c1cccc2nsnc12)c1ccccc1 (configuration not stated) -31.1%
COc1ccc(NC(=O)CSc2nc(-c3ccc(F)cc3)c3cccc(C)c3n2)cc1 -2.89%
COc1ccc(CCNC(=O)c2ccc(Cn3c(=O)c4ccccc4n(Cc4ccc(C)cc4)c3=O)cc2)cc1OC 4.01%
Cc1ccc2nc(CN3CCN(C(=O)Nc4ccc(C)c(F)c4)CC3)oc2c1 -18.8%
COCCCn1c(SCC(=O)Nc2ccccc2OC)nc2c(sc3ccccc32)c1=O 11.1%
CCCCN(C)CCCNC(=O)c1cc(-c2cccnc2)nc2ccccc12 -20.9%
COC(=O)c1ccc(OC)c(Cn2c(=O)n(-c3cccc(Cl)c3)c(=O)c3c4c(sc32)CN(C(C)=O)CC4)c1 -14.5%
COc1ccc(-c2oc3ncn4nc(COc5ccccc5C)nc4c3c2-c2ccc(OC)cc2)cc1 -1.42% [at 11.5 µM]
CCOC(=O)C1CCCN(C(=O)Cn2ncn3c(cc4sc(CC)cc43)c2=O)C1 (configuration not stated) -17.2%
O=C(Nc1ccc(F)cc1)[C@@H](c1ccccc1)N1Cc2ccccc2C1=O -9.23%
CCC(C)NC(=O)c1[nH]c2cc(C)ccc2c1Sc1ccc(Cl)cc1 (configuration not stated) 31.4%
CCOc1cc2[nH]c(=O)n(CCCCC(=O)N3CCN(c4ccccc4)CC3)c(=O)c2cc1OCC -14.6%
Cc1cccc(C)c1OCC(=O)Nc1c(C(=O)c2ccc(Br)cc2)oc2ccccc12 0.397%
COc1ccc2oc(=O)c(-c3cn4c(n3)sc3cc(F)ccc34)cc2c1 -10.4%
CCCn1c2ccccc2c2cnn(CC(=O)N(Cc3ccccc3)C(C)C)c(=O)c21 -1.65%
CCCCOc1ccc(S(=O)(=O)NCc2csc(-c3ccc(OC)cc3)n2)cc1 -28.5%
COc1ccc(CC(=O)NCC(c2cccs2)S(=O)(=O)c2ccc(Cl)cc2)cc1 (configuration not stated) -21.4%
CCN(CC)CC1CCCCN1CC(=O)N1c2ccccc2C(=O)Nc2cccnc21 (configuration not stated) 5.13%
CCC(C(=O)Nc1cc(OC)ccc1OC)n1c(C)c2cnn(-c3ccccc3)c(=O)c2c1C (configuration not stated) -16.8%
COc1ccc(-n2ccn(CC(=O)NCc3ccc(C)cc3)c(=O)c2=O)cc1OC -0.43%
Cc1ccc(S(=O)(=O)NCCc2nnc3ccc(SCc4ccc(F)cc4)nn23)cc1 -23.6%
Cc1ccc2oc(C(=O)Nc3cccc(-c4nc5ccccc5s4)c3)c(C)c2c1 3.73%
Cc1ccc(Nc2ncc(C(=O)N3CCN(c4cccc(Cl)c4)CC3)c3ccccc23)cc1Cl -3.19%
COc1ccccc1Cn1cc(C(=O)c2ccc(F)cc2)c(=O)c2cc3c(cc21)OCO3 9.85%
COc1ccccc1C(=O)c1cn(CC(=O)Nc2ccccc2F)c2nc(C)ccc2c1=O 1.97%
CC(C)(C)c1ccc(C(=O)NC2(C(F)(F)F)C(=O)Nc3c2c(=O)[nH]c(=O)n3-c2ccccc2)cc1 (configuration not stated) -13.1% [at 11.5 µM]
Cc1cccn2c(=O)c3cc(C(=O)NCc4cccnc4)c(=N)n(CCCO)c3nc12 -12.7%
Cc1sc2ncn(CC(=O)N3CCN(c4ccc(Cl)cc4)CC3)c(=O)c2c1S(=O)(=O)N1CCN(c2ncccn2)CC1 -4.3%
COc1ccc(NC(=O)Cn2c(=O)n(-c3ccc(C)cc3)c(=O)c3c2cnn3C)cc1 -11.7%
O=C(Nc1ccc2nc(SCC(=O)N3CCCC3)sc2c1)c1cccc(Cl)c1 -14.3%
CCN1CCCC1=O 1.77%
CC(C)CCNC(=O)C1CCN(c2nc3ccc(Cl)cc3[nH]2)CC1 -1.77%
COc1ccc(C)cc1NC(=O)c1ccc(=O)n(Cc2ccccc2)c1 -13.1%
CCOC(=O)c1c(C)[nH]c(C)c1S(=O)(=O)N(C)CC(=O)Nc1ccc(C)c(N(C)C)c1 -32.8%
CCOC(=O)c1cc2c(=O)n3ccccc3nc2n(Cc2ccco2)c1=NC(=O)c1c(F)cccc1Cl -21.6%
COC(=O)c1cc2occc2n1Cc1nc(-c2cccc(Cl)c2)oc1C -1.63%
COc1ccc(NC(=O)c2c(C)oc3ccc(O)c(CN4CCCCCC4)c23)cc1Cl -21.8%
COc1ccc(/C=C/c2nc(C#N)c(NCCc3ccccc3)o2)cc1OC -9.73%
COc1ccc(Nc2nc3c(S(=O)(=O)c4ccccc4)nnn3c3ccsc23)cc1OC -13.7%
COc1ccc(CCNC(=O)c2cn(C)c3ccc(S(=O)(=O)N(C)C4CCCCC4)cc3c2=O)cc1OC -16.9% [at 11.5 µM]
CC(=O)Nc1ccc(S(=O)(=O)Nc2cc(-c3cn4ccccc4n3)ccc2C)cc1 14.6%
COc1cccc(-n2c(=O)c3c(C)c(C)sc3n(CC(=O)NCc3ccccc3)c2=O)c1 2.44%
COc1ccc(-c2nsc(NC(=O)C(C)Oc3ccc(Cl)c(C)c3)n2)cc1 (configuration not stated) -7.8%
Cc1ccc(C)c(Cn2c(=O)cc(C)c3c(C)nn(-c4cccc(F)c4)c32)c1 1.38%
COc1ccc(NC(=O)c2cnc(Nc3ccc(C)c(Cl)c3)c3ccccc23)cc1OC -12%
CCCN(CCC)CCNC(=O)c1ccc2c(c1)NC(=O)C(CS(=O)(=O)Cc1cccc(Br)c1)N2 (configuration not stated) -7.99%
Cc1sc2ncn(CC(=O)N3CCN(c4cccc(Cl)c4)CC3)c(=O)c2c1S(=O)(=O)N1CCN(c2ncccn2)CC1 -16.4%
COc1ccc(NC(=O)c2ccc3c(SCC(=O)O)c4c(nc3c2)CCC4)c(OC)c1 -6.33%
CCOc1ccccc1N1CC(c2nc3ccccc3n2Cc2c(C)cc(C)cc2C)CC1=O (configuration not stated) 25.3%
COc1ccc(-c2nc(C)c(CCNC(=O)C(=O)Nc3cc(C)cc(C)c3)s2)cc1OC 2.56%
N[C@@H](CC(=O)N1CCn2c(nnc2C(F)(F)F)C1)Cc1cc(F)c(F)cc1F 4.36%
CCOCCCNC(=O)C(c1ccc(OC)cc1)N(Cc1ccc2c(c1)OCO2)C(=O)c1ccccc1O (configuration not stated) -23.7%
Cc1ccc(NC(=O)Cn2nc(C)n3cccc3c2=O)c(C)c1 -5.76%
Cc1cccc(N2CCN(C(=O)c3cc4c(=O)n(C)c5ccccc5c4s3)CC2C)c1 (configuration not stated) -8.98%
Cc1c(F)c(N2CCNC(C)C2)cc2c1c(=O)c(C(=O)O)cn2C1CC1 (configuration not stated) 4.09%
COc1ccc(N2CC(C(=O)NCc3nnnn3-c3ccc(C)c(C)c3)CC2=O)cc1 (configuration not stated) 6.35%
COc1ccccc1NC(=O)Cn1c(=O)c(CNc2ccc(C)cc2)cc2cc3c(cc21)OCCO3 -24.1%
COc1ccc(CCNC(=O)C(=O)NCC(c2ccco2)S(=O)(=O)c2ccccc2)cc1 (configuration not stated) -26%
COc1ccc(-c2nnc3n2N(C(C)=O)C(c2ccc(Cl)c(Cl)c2)=C(C(C)=O)S3)cc1 -9.1%
O=c1[nH]c(=O)n(C2CCCCC2)c(O)c1C1=Nc2ccccc2SC(c2ccc(Cl)cc2)C1 (configuration not stated) -19.7%
COc1ccc2cc3cc(C(=O)N4CCN(c5ccccc5F)CC4)oc3nc2c1 0.567%
CCCOc1ccc(C2CC(=O)Nc3c2c(C)nn3-c2nncc(-c3cccc(OC)c3)n2)cc1OC (configuration not stated) 4.37%
Cc1cccc(NC(=O)c2ccc3c(c2)CCN3S(=O)(=O)c2ccccc2)c1C -29.4%
COc1cccc(OC)c1C(=O)Nc1nc2c(s1)CCc1ccccc1-2 -11.6%
Cc1nc2c(c(C)c1CCC(=O)NCc1ccc(Cl)cc1)c(=O)n(C)c(=O)n2C -0.976%
COC(=O)c1ccc(NC(=O)N2CCN(Cc3cc(=O)n4nc(-c5ccc(C)cc5)sc4n3)CC2)cc1 -13.5%
CC(CNC(=O)CN1C(=O)c2cccnc2Oc2ccc(Cl)cc21)c1ccccc1 (configuration not stated) -4.07%
COc1ccc(-c2noc(-c3ccc(N4CCN(c5ccccc5)CC4)c([N+](=O)[O-])c3)n2)cc1 -5.35%
O=C(NCc1nc2ccccc2[nH]1)c1c(F)cccc1F -3.83%
Cc1cccc(-n2c(C)nc3cc(C(=O)NCCC4=CCCCC4)ccc32)c1 12.9%
